Where “and” joins values, the source holds several entries; their conditions need not be identical. Equal values may be shown once. Among all 48,000 compounds or so, about 1,200 (2.5%) were called active. About 2% were inconclusive and are not listed.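 How the source made its calls: active means activation of at least 60% and not above a set upper limit (about 1 call in 100 departs from these limits); inconclusive means activation of 40% to 60%, or above that upper limit; inactive means activation under 40%.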 The list shows a part of the results.
The compounds below were run against Probable G-protein coupled receptor 32 (Homo sapiens) (UniProt O75388) (assay: qHTS for Agonists of Human Resolvin D1 Receptor DRV1). Conditions: CHO-K1 GPR32 beta-arrestin PathHunter luminescence, 90 min; at 76.9 µM; hits give high values; zero percent set by DMSO-only wells.
How it was run: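 Engineered CHO-K1 line co-expressing GPR32-ProLink and EA-beta-arrestin. Compound treatment lasted 90 min at 37 °C. Luminescence was recorded after 1 h with substrate at ambient temperature, relative to DMSO basal wells.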
Further: 0% is about no effect.

Sequence of UniProt O75388 (O75388 whole entry, looked up): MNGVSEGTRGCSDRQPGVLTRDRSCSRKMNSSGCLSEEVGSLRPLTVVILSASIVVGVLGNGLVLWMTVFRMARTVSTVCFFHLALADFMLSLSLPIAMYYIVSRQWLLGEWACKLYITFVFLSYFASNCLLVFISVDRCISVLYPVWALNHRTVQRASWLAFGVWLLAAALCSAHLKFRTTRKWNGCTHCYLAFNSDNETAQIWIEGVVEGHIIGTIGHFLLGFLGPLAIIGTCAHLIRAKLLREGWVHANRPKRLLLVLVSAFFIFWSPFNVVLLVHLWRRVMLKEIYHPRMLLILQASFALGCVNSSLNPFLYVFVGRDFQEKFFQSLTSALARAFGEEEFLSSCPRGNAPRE

activation, inactive:
CCOC(=O)C1CCN(S(=O)(=O)c2cc3c4c(c2)CC(=O)N4CCC3)CC1 -26.8%, O=C(NCCc1ccccc1Cl)c1ccc2c(c1)nc1n2CCOC1 -7.03%, O=C(CSc1nc2c(c(=O)[nH]1)CN(Cc1ccc(F)cc1)CC2)Nc1ccccc1Cl 47.2%, CCN(CC)CCNC(=O)c1nn(-c2ccc(OC)c(Cl)c2)c(=O)c2c1c1ccccc1n2C 7.71%, O=C(NCCc1ccccc1)C1(c2cccs2)CCOCC1 1.32%, CN(C)S(=O)(=O)n1cc(/C=C(\NC(=O)c2ccccc2Cl)C(=O)NCCCn2ccnc2)c2ccccc21 18.7%, COc1cc(OC)cc(-c2nc3nc(C)c(CCC(=O)Nc4ccc(F)cc4F)c(C)n3n2)c1 0.366%, CCc1nn(C(C)C(=O)N2CCN(c3cccc(C(F)(F)F)c3)CC2)c(=O)c2cc3occc3n12 (configuration not stated) 8.73%, COc1cccc(C(=O)N2c3nc(-c4ccco4)nn3C3(CCCCC3)[C@@H]3CCCC[C@@H]32)c1 -36.5%, CCCNC(=O)c1c(C)nn(-c2cccc(C)c2)c1-n1cccc1 -8.29%, CCc1ccccc1NC(=O)CSCc1cnn(-c2ccccc2)c1-n1cccc1 -1.02%, Cc1ccc(Cn2cc(C(=O)c3ccc(F)cc3)c(=O)c3cc4c(cc32)OCCO4)cc1 -5.85%, CCOc1ccccc1CNCCNC(=O)c1nonc1N 14.9%, COc1cc(OC)c(NC(=O)CC(c2cccs2)N2Cc3ccccc3C2=O)cc1Cl (configuration not stated) -7.13%, Cc1ccc2ncc3c(-c4ccc(F)cc4)nn(-c4cccc(F)c4)c3c2c1 -16.7%, Cc1ccc2c(c1)c1c(c(=O)n(-c3ccccc3C)c(=O)n1CC(=O)N1CCCC1)n2C -0.0271%, Cc1ccccc1Nc1sc(C(=O)c2ccccc2)c(N)c1C(=O)NCc1ccc(Cl)cc1 -67.8%, COc1ccc(C)cc1NC(=O)C1CCN(S(=O)(=O)c2c(C)noc2/C=C/c2ccco2)CC1 -33%, C#C[C@]1(O)CC[C@H]2[C@@H]3CCC4=CC(=O)CC[C@@H]4[C@H]3CC[C@@]21CC -0.415%, O=C(Nc1ccc(F)cc1F)C(Cc1ccccc1)N1Cc2ccccc2C1=O (configuration not stated) -14.9%, COc1cccc(-n2c(-c3ccc(Cl)cc3)cc3c2CC(C)(C)CC3=O)c1 -15.5%, COc1cc2c(=O)n(Cc3ccccc3Cl)c(=O)n(CC(=O)Nc3ccccc3)c2cc1OC 8.88%, O=C(CCC(=O)N1CC2CCCN2c2ccccc21)NCc1cccc(Cl)c1 (configuration not stated) -25.8%, Cc1ccc(-c2nnc(SCC(=O)NC3CCCC3)nc2-c2ccc(C)cc2)cc1 -26.4%, Cc1ccc(C(=O)Nc2nc3ccc(S(=O)(=O)N4CCCC4)cc3s2)cc1 24.2%, CCOc1ccc(NC(=O)CCC(=O)N2CC(C)Oc3ccc(C)cc32)cc1 (configuration not stated) -6.51%, COc1ccc(CN2C(=O)c3oc4ccc(F)cc4c(=O)c3C2c2ccc(O)cc2)cc1 (configuration not stated) -0.289%, N#CC(=C(\N)Sc1ccccc1N)/C(C#N)=C(/N)Sc1ccccc1N 9.34%, CCCCn1cc2c(c1-c1ccccc1Br)c(=O)n(C)c(=O)n2C -32.9%, Cc1nc(N2CCOCC2)c2c(C(=O)NCCc3ccccc3)c(C)oc2n1 -13.7%, O=C(/C=C/c1ccccc1)NCCO 18.4%, Cc1ccc(C(=O)n2nc(-c3ccco3)nc2NCc2cccs2)cc1 -1.35%, N#C/C(=C\c1ccc(O)c(O)c1)C(=O)NCc1ccccc1 -21.5%, Cc1ccc(NC(=O)C2CCCN(c3ncnc4onc(-c5ccc(F)cc5)c34)C2)c(Cl)c1 (configuration not stated) 8%, CCCCOc1cccc(C(=O)Nc2cccc(-c3nc4ncccc4o3)c2C)c1 4.74%, CCOC(=O)C1=C(C)NC(=O)NC1c1cn(-c2ccccc2)nc1-c1ccc(OCC)cc1 (configuration not stated) 29.1%, CCC(C)NC(=O)Cn1ccc2cc(S(=O)(=O)N3CCCCC3)ccc21 (configuration not stated) -14.8%, CSc1ncc(C(=O)N2CCN(c3cc(C)ccc3C)CC2)c(C)n1 37.3%, Cc1cccc(N2CCN(C(=O)CN3C(=O)COc4ccc(S(=O)(=O)N5CCCCCC5)cc43)CC2)c1C -13.2%, Cc1oc(-c2ccc(C(=O)NCc3ccc(Cl)cc3)cc2)nc1CS(=O)(=O)c1ccccc1 3.88%, CCn1c(=N)c(C(=O)NCc2ccccc2)cc2c(=O)n3cc(C)ccc3nc21 13.8%, CCCCNC(=O)C(Cc1ccccc1)NS(=O)(=O)c1ccc2c(c1)c(=O)n(C)c(=O)n2C (configuration not stated) 9.67%, CC(C)c1ccc(N2C(=O)CS(=O)(=O)C23C(=O)N(Cc2cccc(F)c2)c2ccccc23)cc1 (configuration not stated) -3.28%, CCC1CN(C(=O)NCc2ccc(C)cc2)c2ccccc2O1 (configuration not stated) -32%, Cc1cc(C)c(OCC(=O)N(Cc2ccco2)Cc2ccco2)c(C)c1 5.18%, CCOC(=O)c1ccc(NS(=O)(=O)c2ccc(-c3cc(C)no3)cc2)cc1 -7.37%, Cc1ccc(C)c(NC(=O)c2cc(S(=O)(=O)N3CCCc4ccccc43)ccc2F)c1 -26.5%, Cc1cc2c(C(C)C)c(O)c(O)c(C=O)c2c(O)c1-c1c(C)cc2c(C(C)C)c(O)c(O)c(C=O)c2c1O -6.44% and -19.4%, COc1ccccc1CCNC(=O)c1ccc(-c2nc(CSc3ccc(C)cc3)c(C)o2)cc1 0.389%, CSc1ncc(C(=O)Nc2c(C)cccc2C)c(-c2ccccc2)n1 1.18%, Cc1nc2ccccc2c(=O)n1-c1ccc(NC(=O)c2cccc([N+](=O)[O-])c2)cc1 48.6%, COc1ccc(Cn2ccc3nc(C)c(C(=O)Nc4cc(C)cc(C)c4)cc3c2=O)cc1 -16.4%, Cc1ccccc1S(=O)(=O)Cc1ccc(C(=O)NC2CCC(C)CC2)o1 (configuration not stated) -8.54%, CCOc1ccc(NC(=O)Cn2c(=O)n(-c3ccccc3)c(=O)c3ccc(C(=O)NCc4ccc5c(c4)OCO5)cc32)cc1 -11.5%, CCC(C)NC(=O)CSc1nc2cc3c(cc2c(=O)n1CCCCCC(=O)NCc1ccc2c(c1)OCO2)OCO3 (configuration not stated) -6.8%, Cc1nc2nc[nH]n2c(=O)c1CCC(=O)Nc1ccc(F)cc1 -7.27%, Cc1ccc(CNC(=O)C2CCN(S(=O)(=O)c3ccc4[nH]c(=O)ccc4c3)CC2)cc1 -6.55%, CCOc1ccc(-n2ccnc2SCC(=O)Nc2nc3ccc(C)cc3s2)cc1 -4.56%, Cc1cc(-c2ccc(C)c(S(=O)(=O)NC3CCCCC3)c2)on1 -17.7%, O=C(Cn1c(=O)n(Cc2cccs2)c(=O)c2cccnc21)Nc1ccc(F)cc1 -8.98%, COc1cccc2cc(C(=O)Nc3ccc(F)c(F)c3)c(=O)oc12 -16.2%, CC1(C)C(=O)N(CC(=O)Nc2cccc(F)c2)c2ccc(S(=O)(=O)N3CCCCC3)cc21 -3.31%, Cc1nn(-c2ccccc2)c2c1N(CC(=O)N1CCN(c3ccc(F)cc3)CC1)C(=O)CS2 1.25%, CCOc1cc(-c2nnc(SCC(=O)NC3CCCC3)nc2-c2ccc(OC)c(OCC)c2)ccc1OC -29.5%, Cc1ccc(Cl)cc1-n1c(=O)c2sc3ccccc3c2n(Cc2ccccc2)c1=O 3.3%, CCCCCSc1nnc(-c2ccc(Br)cc2)o1 3.74%, Nc1ncnc(Nc2ccccc2)n1 2.15%, CC(C)CCN1C(=O)c2ccccc2CC1(C)C(=O)NC1CCC(C)CC1 (configuration not stated) -5.08%, O=C(CSc1nccn1C1CCCC1)Nc1ccc(C(F)(F)F)cc1 -1.98%, COc1ccc(NC(=O)C2CCN(S(=O)(=O)c3ccc4[nH]c5c(c4c3)CCCCC5)CC2)cc1 -7.44%, CCOc1ccc(NC(=O)Cn2cc(S(=O)(=O)NC)c(S(=O)(=O)NC)c2)cc1 -13%, O=C(Nc1cccc(F)c1)[C@H](CSCc1ccccc1)N1Cc2ccccc2C1=O -4.41%, CC(C)c1ccc(-c2nc(C(N)=O)c3c(n2)n(-c2ccc4c(c2)OCO4)c(=O)n3C)cc1 -4.72%, CC(=O)N1CCc2nc3sc(C(=O)c4ccc(F)cc4)c(N)c3c(C(F)(F)F)c2C1 -16.9%, Cc1ccc(NC(=O)CSc2nc(=O)n(CCN3CCOCC3)c3c2CCC3)c(C)c1 -5.34%, Cc1ccc(C(=O)Nc2ccc(S(=O)(=O)N3CCC(c4nc5ccccc5s4)CC3)cc2)cc1 2.54%, Cc1ccc(OCC(=O)Nc2nnc(S(=O)(=O)N3c4ccccc4CC3C)s2)cc1 (configuration not stated) 9.85%, Cc1ccc(NC(=O)c2nc(S(C)(=O)=O)ncc2N(Cc2ccco2)Cc2cccs2)c(C)c1 -23.6%, CCc1ccc(NC(=O)C(=O)NCC(c2cccnc2)N2CCN(c3ccc(F)cc3)CC2)cc1 (configuration not stated) 4.21%, CC(=O)c1cccc(NC(=O)c2nc(-c3ccccc3)n(-c3cccc(Cl)c3)n2)c1 -24%, Cc1ccc(OCCCCn2nnc3sc4c(c3c2=O)CCCC4)cc1 -0.338%, Cc1nnc(N2CCC(C(=O)N3CCCCC3)CC2)c2nn(-c3ccc(Cl)cc3)c(C)c12 10.4%

From PubChem BioAssay AID1346428 (National Center for Advancing Translational Sciences (NCATS), 2018)
